Results as given in paper PMC3511050.

Molecular target: T1, IscU (E. coli), P0ACD4
T1 chain: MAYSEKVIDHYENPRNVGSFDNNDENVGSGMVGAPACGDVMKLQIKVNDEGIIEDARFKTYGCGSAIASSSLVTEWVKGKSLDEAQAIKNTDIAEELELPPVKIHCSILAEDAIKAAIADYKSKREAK
Assay: cross-linking
Conditions: remark: other sources report otherwise

B1: IscU, P0ACD4 1-128 (natural protein)
chain: T1 chain
Q: How did the percent of total IscU as disulfide-bonded homodimer (after H2O2) turn out when B1 was run?
A: 28%

Q: What about the percent of total IscU as disulfide-bonded homodimer (samples with IscS and IscU) of the same binder?
A: 39%

Q: And the percent of total IscU as disulfide-bonded homodimer (without H2O2)?
A: 12%

Q: What about the stoichiometry N of the same binder?
A: 2
